Test results: patent US20250136696A1 (HARBOUR BIOMED SHANGHAI, published 2025)

T1: human B7-H7 on the cell surface (human, UniProt Q9UM44 23-414)
T1 construct: whole, on cells; also called hB7-H7; hu B7-H7
T1 sequence (looked up): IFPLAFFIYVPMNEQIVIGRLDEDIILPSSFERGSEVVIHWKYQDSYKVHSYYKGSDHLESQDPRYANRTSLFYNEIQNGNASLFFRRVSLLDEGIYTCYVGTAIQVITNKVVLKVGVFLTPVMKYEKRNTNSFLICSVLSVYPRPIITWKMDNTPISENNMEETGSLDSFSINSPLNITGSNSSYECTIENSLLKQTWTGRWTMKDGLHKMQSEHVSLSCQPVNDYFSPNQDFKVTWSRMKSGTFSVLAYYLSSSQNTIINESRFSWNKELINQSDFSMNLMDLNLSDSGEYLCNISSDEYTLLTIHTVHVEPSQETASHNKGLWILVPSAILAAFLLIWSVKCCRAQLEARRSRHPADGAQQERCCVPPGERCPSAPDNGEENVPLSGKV

T2: human B7-H7 recombinant protein (human, UniProt Q9UM44 23-344)
T2 construct: also called human B7-H7 protein
T2 sequence (looked up): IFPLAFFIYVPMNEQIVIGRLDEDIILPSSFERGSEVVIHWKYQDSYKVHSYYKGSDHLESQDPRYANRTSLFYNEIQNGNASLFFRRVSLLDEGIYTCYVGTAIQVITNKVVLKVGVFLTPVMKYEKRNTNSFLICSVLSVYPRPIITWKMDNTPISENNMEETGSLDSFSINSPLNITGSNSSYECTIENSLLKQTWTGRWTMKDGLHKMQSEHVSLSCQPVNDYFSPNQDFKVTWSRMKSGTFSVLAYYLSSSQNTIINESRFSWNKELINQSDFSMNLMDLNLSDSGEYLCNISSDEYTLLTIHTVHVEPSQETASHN


Columns and labels:
[1] = target: T1, human B7-H7 on the cell surface; assay: flow cytometry, LS180 cells
Experimental: (§1) This example was intended to study the in vitro activity of H2L2 monoclonal antibodies against human B7-H7 in binding to human/cynomolgus monkey B7-H7. Since homologous molecules of B7-H7 were not present in mice, the detection was not performed. […] The cells were adjusted to a cell density of 1×10⁶ cells/mL, respectively. The cells were seeded in a 96-well V-bottom plate (Corning, #3894) at 100 μL/well, and the antibody to be tested at 2× final concentration with 3-fold concentration gradient dilution was then added at 100 μL/well. The cells were incubated at 4° C. for 2 hours in the dark. After the incubation, the cells were rinsed twice by adding pre-chilled PBS containing 2% BSA at 100 μl/well, and centrifuged at 500 g at 4° C. for 5 minutes, and the supernatant was discarded. […] The cells were washed twice by adding pre-chilled PBS containing 2% BSA at 100 μL/well, and centrifuged at 500 g at 4° C. for 5 minutes, and the supernatant was discarded. Finally, the cells were resuspended in pre-chilled PBS containing 2% BSA at 200 μL/well, and the fluorescence signal values were read using an ACEA Novocyte3000 flow cytometer.

[2] = target: T1, human B7-H7 on the cell surface; assay: flow cytometry on HEK-293/hB7-H7 cells after 0-14 days in 90% human serum at 37 C
Experimental: The cells were adjusted to a cell density of 1×10⁶ cells/mL, respectively. The cells were seeded in a 96-well V-bottom plate (Corning, #3894) at 100 μL/well, and the antibody to be tested at 2× final concentration with 3-fold concentration gradient dilution was then added at 100 μL/well. The cells were incubated at 4° C. for 2 hours in the dark. After the incubation, the cells were rinsed twice by adding pre-chilled PBS containing 2% BSA at 100 μL/well, and centrifuged at 500 g at 4° C. for 5 minutes, and the supernatant was discarded. […] The cells were washed twice by adding pre-chilled PBS containing 2% BSA at 100 μL/well, and centrifuged at 500 g at 4° C. for 5 minutes, and the supernatant was discarded. Finally, the cells were resuspended in pre-chilled PBS containing 2% BSA at 200 μL/well, and the fluorescence signal values were read using an ACEA Novocyte3000 flow cytometer.

[3] = target: T1, human B7-H7 on the cell surface; assay: flow cytometry, HCC827 cells
Experimental: as §1

[4] = target: T2, human B7-H7 recombinant protein; assay: BLI (Octet), antibody captured on AHC sensor, human B7-H7 in solution, 1:1 global fit
Experimental: The binding kinetics between antigen and antibody was analyzed using an Octet Red 96e (Fortebio) molecular interaction analyzer by biolayer interferometry (BLI) technology.
For determining the affinity of antibodies for antigens, the rotary speed of the sensor was set at 1000 rpm. AHC sensors (Fortebio, #18-5060) placed in one column were first equilibrated in a test buffer for 10 minutes, and then used to capture the anti-B7-H7 antibodies at a capture height of 0.7 nm; and after being equilibrated in the buffer for 120 s, the AHC sensors bound to human B7-H7 (concentrations: 50-3.125 nM and 0 nM) with 2-fold gradient dilution for 180 s and dissociated for 300 s. The AHC sensors were finally regenerated by immersing in a 10 mM glycine-hydrochloric acid solution with pH 1.5 to elute the protein bound to the sensors.
For data analysis using Octet Data Analysis software (Fortebio, version 11.0), 0 nM well was used as the reference well, reference subtraction was performed, “1:1 Global fitting” method was selected for data fitting, the kinetic parameters of the binding of the antigen to the antigen-binding protein were calculated, and the kₒₙ (1/Ms) value, kdis (1/s) value and KD (M) value were obtained.

[5] = target: T1, human B7-H7 on the cell surface; assay: flow cytometry, HEK-293/hu B7-H7 cells
Experimental: as §1

EC50 [1] [nM] | Maximum MFI [1] [MFI] | EC50 (read off the curve) [2] [nM] | Maximum MFI [3] [MFI] | Kd [4] [nM] | koff [4] [s⁻¹] | kon [4] [M⁻¹ s⁻¹] | EC50 [5] [nM] | Maximum MFI [5] [MFI] | Binder
0.034 | 26900 | ~1 |  |  |  |  |  |  | PR004261 (antibody, human IgG1, kappa, Variant of PR003249; Human IgG1 with LALA mutation in Fc) heavy: QVQLVESGGGVVQPGRSLRLSCAASGFTFSDYGIHWVRQAPGKGLEWVAVIWYDGSDKYYADSVRGRFTISRDNSKNTLSLQMNSLRVEDTAVYYCARDRSSGAMGYFVYWGQGTLVTVSSASTKGPSVFPLAPSSKSTSGGTAALGCLVKDYFPEPVTVSWNSGALTSGVHTFPAVLQSSGLYSLSSVVTVPSSSLGTQTYICNVNHKPSNTKVDKKV[not shown - human IgG1 Fc with changes] light: [not shown - about 100 residues][not shown - about 100 residues]
0.033 | 25900 | ~1 |  |  |  |  |  |  | PR004262 (antibody, human IgG1, kappa, Variant of PR003259; Human IgG1 with LALA mutation in Fc) heavy: QVQLVESGGGVVQPGRSLRLSCAASGFTFSNYGMHWVRQVPGKGLEWVAVIWYDGSEKDYADSVKGRFTISRDNSKNTLYLQMNSLRVEDTAVYYCAKDLISGIYYVDHWGQGTLVTVSSASTKGPSVFPLAPSSKSTSGGTAALGCLVKDYFPEPVTVSWNSGALTSGVHTFPAVLQSSGLYSLSSVVTVPSSSLGTQTYICNVNHKPSNTKVDKKV[not shown - human IgG1 Fc with changes] light: DIQMTQSPSSLSASVGDRVTITCRASQGISNYLAWYQQKPGKVPKLLIYAASTLQSGVPSRFSGSGSGTDFTLTISSLQPEDVATYYCQKYNSAPFTFGPGTKVDIKRTVAAPSVFIFPPSDEQLKSGTASVVCLLNNFYPREAKVQWKVDNALQSGNSQESVTEQDSKDSTYSLSSTLTLSKADYEKHKVYACEVTHQGLSSPVTKSFNRGEC
 |  |  | 68200 | 1.64 | 0.000124 | 75300 | 0.945 | 808000 | PR003259 (antibody, human IgG1, kappa, Human IgG1; also called 68F3A2) heavy: QVQLVESGGGVVQPGRSLRLSCAASGFTFSNYGMHWVRQVPGKGLEWVAVIWYDGSEKDYADSVKGRFTISRDNSKNTLYLQMNSLRVEDTAVYYCAKDLISGIYYVDHWGQGTLVTVSS[not shown - human IgG1 constant region] light: DIQMTQSPSSLSASVGDRVTITCRASQGISNYLAWYQQKPGKVPKLLIYAASTLQSGVPSRFSGSGSGTDFTLTISSLQPEDVATYYCQKYNSAPFTFGPGTKVDIKRTVAAPSVFIFPPSDEQLKSGTASVVCLLNNFYPREAKVQWKVDNALQSGNSQESVTEQDSKDSTYSLSSTLTLSKADYEKHKVYACEVTHQGLSSPVTKSFNRGEC
